# Data published in the supplement of paper PMC8728848.
# Some of the results follow.
# Experiments:
# Assay in all cases: glycan array binding signal (z-score within array); higher = stronger binding
# Settings in all cases: glycan notation: IUPAC condensed, linker removed
# [1] = biological target: Neu5Ac(a2-6)GlcNAc(b1-4)GlcNAc
# How it was run: (§1)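 The binding signal is a Z-score computed within each array. Data were drawn from 3228 arrays in the Consortium for Functional Glycomics database, restricted to those with a known protein sequence. Scores were averaged over arrays of the same protein sequence at different concentrations or buffers, and over linkers, and negative values can be taken as non-binding.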
# [2] = biological target: Neu5Ac(a2-6)GlcNAc(b1-4)GlcNAc(b1-4)GlcNAc
# How it was run: as §1
# Neu5Ac(a2-8)Neu5Ac = biological target: Neu5Ac(a2-8)Neu5Ac
# How it was run: as §1
# [3] = biological target: Neu5Ac(a2-8)Neu5Ac(a2-3)Gal(b1-3)GalNAc(b1-4)[Neu5Ac(a2-3)]Gal(b1-4)Glc
# How it was run: as §1
# [4] = biological target: Neu5Ac(a2-8)Neu5Ac(a2-3)Gal(b1-3)GalNAc(b1-4)[Neu5Ac(a2-8)Neu5Ac(a2-3)]Gal(b1-4)Glc
# How it was run: as §1
# [5] = biological target: Neu5Ac(a2-8)Neu5Ac(a2-3)Gal(b1-4)Glc
# How it was run: as §1
# [6] = biological target: Neu5Ac(a2-8)Neu5Ac(a2-3)Gal(b1-4)GlcNAc
# How it was run: as §1
# [7] = biological target: Neu5Ac(a2-8)Neu5Ac(a2-3)[Gal(b1-3)GalNAc(b1-4)]Gal(b1-4)Glc
# How it was run: as §1
# [8] = biological target: Neu5Ac(a2-8)Neu5Ac(a2-3)[GalNAc(b1-4)]Gal(b1-4)Glc
# How it was run: as §1
# [9] = biological target: Neu5Ac(a2-8)Neu5Ac(a2-8)Neu5Ac
# How it was run: as §1
# [10] = biological target: Neu5Ac(a2-8)Neu5Ac(a2-8)Neu5Ac(a2-3)Gal(b1-4)Glc
# How it was run: as §1
# [11] = biological target: Neu5Ac(a2-8)Neu5Ac(a2-8)Neu5Ac(a2-3)[Gal(b1-3)GalNAc(b1-4)]Gal(b1-4)Glc
# How it was run: as §1
# [12] = biological target: Neu5Ac(a2-8)Neu5Ac(a2-8)Neu5Ac(a2-3)[GalNAc(b1-4)]Gal(b1-4)Glc
# How it was run: as §1
# [13] = biological target: Neu5Ac(a2-8)Neu5Ac(a2-8)Neu5Ac(a2-8)Neu5Ac(a2-3)[GalNAc(b1-4)]Gal(b1-4)Glc
# How it was run: as §1
# [14] = biological target: Neu5Ac(a2-8)Neu5Gc(a2-3)Gal(b1-4)GlcNAc
# How it was run: as §1
# [15] = biological target: Neu5Ac(b2-6)Gal(b1-4)GlcNAc
# How it was run: as §1
# Neu5Ac(b2-6)GalNAc = biological target: Neu5Ac(b2-6)GalNAc
# How it was run: as §1
# [16] = biological target: Neu5Ac9Ac(a2-3)Gal(b1-3)GlcNAc
# How it was run: as §1
# [17] = biological target: Neu5Ac9Ac(a2-3)Gal(b1-4)GlcNAc
# How it was run: as §1
# [18] = biological target: Neu5Ac9Ac(a2-6)Gal(b1-4)GlcNAc
# How it was run: as §1
# [19] = biological target: Neu5Gc(a2-3)Gal(b1-3)GlcNAc
# How it was run: as §1
# [20] = biological target: Neu5Gc(a2-3)Gal(b1-3)[Fuc(a1-4)]GlcNAc
# How it was run: as §1
# Neu5Gc(a2-3)Gal(b1-4)Glc = biological target: Neu5Gc(a2-3)Gal(b1-4)Glc
# How it was run: as §1
# [21] = biological target: Neu5Gc(a2-3)Gal(b1-4)GlcNAc
# How it was run: as §1
# [22] = biological target: Neu5Gc(a2-3)Gal(b1-4)GlcNAc(b1-3)Gal(b1-4)GlcNAc(b1-2)Man(a1-3)[Neu5Gc(a2-3)Gal(b1-4)GlcNAc(b1-3)Gal(b1-4)GlcNAc(b1-2)Man(a1-6)]Man(b1-4)GlcNAc(b1-4)GlcNAc
# How it was run: as §1
# [23] = biological target: Neu5Gc(a2-3)Gal(b1-4)[Fuc(a1-3)]GlcNAc
# How it was run: as §1
# [24] = biological target: Neu5Gc(a2-6)Gal(b1-4)GlcNAc
# How it was run: as §1
# Neu5Gc(a2-6)GalNAc = biological target: Neu5Gc(a2-6)GalNAc
# How it was run: as §1
# [25] = biological target: Neu5Gc(a2-8)Neu5Ac(a2-3)Gal(b1-4)GlcNAc
# How it was run: as §1
# [26] = biological target: Neu5Gc(a2-8)Neu5Gc(a2-3)Gal(b1-4)GlcNAc
# How it was run: as §1
# [27] = biological target: Neu5Gc(a2-8)Neu5Gc(a2-3)Gal(b1-4)GlcNAc(b1-3)Gal(b1-4)GlcNAc
# How it was run: as §1
# [28] = biological target: Neu5Gc(a2-8)Neu5Gc(a2-6)Gal(b1-4)GlcNAc
# How it was run: as §1
# [29] = biological target: Neu5Gc(b2-6)Gal(b1-4)GlcNAc
# How it was run: as §1
binder,measurement,setting,value
"LgFlo1 (Saccharomyces pastorianus), B3IUA8 (protein) SGSTQACLPVGSRKNGMNVNFYKYSLQDSTTYSDPQYMAYKYSDTKKLGSVSGQTHLSIYYGPNTAFWNTASWSSDLFGFYTTPTNVTVEMTGYFLPPQTGSYTFKFATVDDSAILSVGGSIAFECCAQEQPPITSTDFTINGIKPWDAATPTDIKGSTYMYAGYYYPIKIVYSNAKALARLPVSVVLPDGTEVNDDFEGYVYSFDDDLSQSNCTIPDPSKHTTS",glycan array binding signal (z-score),[1],-0.465
same,glycan array binding signal (z-score),[2],0.655
same,glycan array binding signal (z-score),Neu5Ac(a2-8)Neu5Ac,-0.117
same,glycan array binding signal (z-score),[3],-0.023
same,glycan array binding signal (z-score),[4],0.215
same,glycan array binding signal (z-score),[5],-0.354
same,glycan array binding signal (z-score),[6],-0.232
same,glycan array binding signal (z-score),[7],-0.149
same,glycan array binding signal (z-score),[8],-0.161
same,glycan array binding signal (z-score),[9],-0.232
same,glycan array binding signal (z-score),[10],-0.25
same,glycan array binding signal (z-score),[11],0.076
same,glycan array binding signal (z-score),[12],-0.074
same,glycan array binding signal (z-score),[13],0.133
same,glycan array binding signal (z-score),[14],-0.104
same,glycan array binding signal (z-score),[15],-0.214
same,glycan array binding signal (z-score),Neu5Ac(b2-6)GalNAc,-0.069
same,glycan array binding signal (z-score),[16],-0.251
same,glycan array binding signal (z-score),[17],0.32
same,glycan array binding signal (z-score),[18],-0.397
same,glycan array binding signal (z-score),[19],-0.425
same,glycan array binding signal (z-score),[20],-0.112
same,glycan array binding signal (z-score),Neu5Gc(a2-3)Gal(b1-4)Glc,0.165
same,glycan array binding signal (z-score),[21],0.216
same,glycan array binding signal (z-score),[22],-0.305
same,glycan array binding signal (z-score),[23],-0.261
same,glycan array binding signal (z-score),[24],0.383
same,glycan array binding signal (z-score),Neu5Gc(a2-6)GalNAc,0.16
same,glycan array binding signal (z-score),[25],-0.251
same,glycan array binding signal (z-score),[26],-0.265
same,glycan array binding signal (z-score),[27],-0.163
same,glycan array binding signal (z-score),[28],-0.346
same,glycan array binding signal (z-score),[29],-0.24
